Assay results reported in US20250361299A1 (published 2025).

What was measured:
Recombinant human EGFR = Recombinant human EGFR (human, UniProt P00533 part only); test: ELISA; with uPA
Human CD3 protein = biological target: T1, Human CD3 protein (human, UniProt P07766 23-126); test: ELISA; with uPA
T1 chain: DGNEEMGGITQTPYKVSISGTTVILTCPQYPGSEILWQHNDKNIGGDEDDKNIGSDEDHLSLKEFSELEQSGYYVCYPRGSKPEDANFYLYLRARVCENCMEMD

- EC50 (Recombinant human EGFR): 1.19 µg/mL
- EC50 (Human CD3 protein): 0.72 µg/mL
B1: 1.6.1 proBiTE after uPA digestion (bispecific antibody)
heavy: SDNHGGGGSEVQLVESGGGLVQPGGSLRLSCAASGFTFNTYAMNWVRQAPGKGLEWVARIRSKYNNYATYYADSVKGRFTISRDDSKNTLYLQMNSLRAEDTAVYYCARHGNFGSSYVSYFAYWGQGTTVTVSSASTKGPSVFPLAPSSKSTSGGTAALGCLVKDYFPEPVTVSWNSGALTSGVHTFPAVLQSSGLYSLSSVVTVPSSSLGTQTYICNVNHKPSNTKVDKKVEPKS[human IgG1 Fc with T366L Y407H (EU numbers) cut from this listing]
light: EVQLVETGGGVVQPGRSLRLSCAASGFTFSSYAMHWVRQAPGKGLEWVAVISYDGSNKYYADSVKGRFTISRDNSKNTLYLQMNSLRAEDTAVYYCARGYVARGDFDYWGQGTLVTVSSGGGGSGGGGSGGGGSGGGGSDVVMTQSPSTLSASVGDRVTITCRASQSMSRWLAWYQQKPGKGPKLLIYATSTLQSGVPSRFSGSGSGTEFTLTISSLQPEDFATYYCQQLDSFPFSFTFGPGTKVDLKGGGGSGGGGSGGGGSGGGGSEIVVTQSPATLSVSPGERATLSCRSSTGAVTTSNYANWVQQKPGQAPRGLIGGANKRAPGVPARFSGSLSGDEATLTISSLQSEDFAVYYCALWYSNLWVFGQGTKLEIKRTVAAPSVFIFPPSDEQLKSGTASVVCLLNNFYPREAKVQWKVDNALQSGNSQESVTEQDSKDSTYSLSSTLTLSKADYEKHKVYACEVTHQGLSSPVTKSFNRGE[human IgG1 Fc with T366L Y407H (EU numbers) cut from this listing]
